Measurements reported in PubChem BioAssay AID463173 (ICCB-Longwood Screening Facility, Harvard Medical School, 2010).
The whole screen tested about 52,000 compounds, of which about 4,300 (8.3%) were called active. No stated cut-off is given here; in the data, active means survival mostly below about 52% (no sharp cut-off); inactive means mostly above about 56%. The list shows a part of the results.

Test system: DeltatarO mutant
Assay: S. aureus survival, RN4220 and DeltatarO strains – OD600, teichoic acid synthesis inhibitors, primary screen (AID 463173)
Details: S. aureus RN4220 wild type/DeltatarO growth, OD600, 18 h, stronger effect = lower value, screened at 18.75 µg/mL (by protocol)

SMILES | survival
CCOC(=O)c1cc2c(=O)n3ccccc3nc2n(Cc2ccco2)c1=NC(=O)c1ccccc1OC | active: 28%
Cc1ccc(NC(=O)C2CCCN(c3nnc(C)c4c(C)n(-c5ccccc5)nc34)C2)cc1Cl (centres undefined) | inactive: 83%
CC1CCCC(C)N1CCNC(=O)c1cn(C(C)c2ccccc2F)nn1 (centres undefined) | inactive: 93%
Cc1cc(C)cc(OCC(=O)Nc2cccc(-c3nc4ccccc4[nH]3)c2)c1 | active: 31%
O=C(Cn1c(=O)n(-c2ccc(F)cc2)c(=O)c2sccc21)Nc1cccc(C(F)(F)F)c1 | inactive: 55%
COc1ccc(-n2nc3c(c2NC(=O)C(=O)N2CCN(C)CC2)CSC3)cc1 | inactive: 83%
CC(C)(C)C(=O)CNS(=O)(=O)c1ccc(S(=O)(=O)N2CCCC2)cc1 | inactive: 80%
Cc1ccc(-c2nnn(CC(=O)N(Cc3cccs3)C(C(=O)NCC3CCCO3)c3ccc(F)cc3)n2)o1 (centres undefined) | inactive: 82%
COc1cc(NC(=O)CSc2nc3nc(C)c(Cc4ccccc4)c(C)n3n2)cc(OC)c1 | inactive: 112%
CCOc1ccc2nc(N3CCCC(C(=O)NCCc4ccc(SC)cc4)C3)sc2c1 (centres undefined) | inactive: 91%
O=C(NCc1ccccc1)C1CCCN(C(=O)Nc2ccccc2)C1 (centres undefined) | inactive: 102%
O=S(=O)(NC1=NCCS1)c1ccc(N=NN2CCCCC2)cc1 | inactive: 75%
CCN(c1ccc(C)cc1C)S(=O)(=O)c1nnc(NC(=O)CC(C)C)s1 | inactive: 75%
Cc1ccc(CNC(=O)c2ccc3c(c2)N(Cc2cccc(Cl)c2)C(=O)CS3)cc1 | active: 40%
CCn1c(N2CCN(C(=O)Nc3ccc(Cl)c(C(F)(F)F)c3)CC2)nc2ccccc21 | active: 0%
Cc1cc(O)c(C(=O)c2cnc3c(c2)COc2ccccc2-3)cc1Cl | inactive: 76%
CCOc1ccc(NC(=O)Cn2cc(C(=O)c3ccc(C)c(C)c3)c(=O)c3cc(F)ccc32)cc1 | inactive: 84%
CCC1(C)Cc2ccccc2/C(=C/C(=O)N2CCCCC2)N1 (centres undefined) | inactive: 104%
Cc1ccc(Cl)cc1NC(=O)Cn1c(=O)n(CCC(=O)N2CCc3ccccc3C2)c(=O)c2ccccc21 | inactive: 102%
CCOC(=O)c1cnn(-c2cccc(F)c2)c1C1CCNCC1 | inactive: 126%
Cc1cccc(NC(=O)Cn2nc(N3CCN(c4ccccc4)CC3)ccc2=O)c1C | inactive: 87%
CCOC(=O)c1c(C)sc(-c2c(-c3cc(C)ccc3C)[nH]c3c2c(=O)[nH]c(=O)n3C)c1O | active: 40%
CCOc1ccc(CCNC(=O)Cn2nc(C)c3c(C)n(-c4ccccc4)nc3c2=O)cc1OCC | active: 25%
COc1cc(C(=O)Nc2ccc(-c3cc(C(F)(F)F)nn3-c3ccccc3)cc2)cc(OC)c1OC | inactive: 66%
